Measurements published in publication PMC6919601, “Identification of Plasmodium dipeptidyl aminopeptidase allosteric inhibitors by high throughput screening” (PLoS ONE, 2019).
In all, about 110,000 compounds went through this assay and about 230 (0.21%) showed an effect of 50% or more. The list shows a part of the results.
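Further: 30 min substrate incubation versus DMSO and 10 µM JCP410 controls.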

The molecules below were run against DPAP1 (Plasmodium falciparum, UniProt Q8IIJ9) (assay: primary screen, percent inhibition; read by cleavage of a fluorogenic dipeptide substrate; higher = more effect of the substance).
Chain of DPAP1 (Q8IIJ9 whole entry, looked up): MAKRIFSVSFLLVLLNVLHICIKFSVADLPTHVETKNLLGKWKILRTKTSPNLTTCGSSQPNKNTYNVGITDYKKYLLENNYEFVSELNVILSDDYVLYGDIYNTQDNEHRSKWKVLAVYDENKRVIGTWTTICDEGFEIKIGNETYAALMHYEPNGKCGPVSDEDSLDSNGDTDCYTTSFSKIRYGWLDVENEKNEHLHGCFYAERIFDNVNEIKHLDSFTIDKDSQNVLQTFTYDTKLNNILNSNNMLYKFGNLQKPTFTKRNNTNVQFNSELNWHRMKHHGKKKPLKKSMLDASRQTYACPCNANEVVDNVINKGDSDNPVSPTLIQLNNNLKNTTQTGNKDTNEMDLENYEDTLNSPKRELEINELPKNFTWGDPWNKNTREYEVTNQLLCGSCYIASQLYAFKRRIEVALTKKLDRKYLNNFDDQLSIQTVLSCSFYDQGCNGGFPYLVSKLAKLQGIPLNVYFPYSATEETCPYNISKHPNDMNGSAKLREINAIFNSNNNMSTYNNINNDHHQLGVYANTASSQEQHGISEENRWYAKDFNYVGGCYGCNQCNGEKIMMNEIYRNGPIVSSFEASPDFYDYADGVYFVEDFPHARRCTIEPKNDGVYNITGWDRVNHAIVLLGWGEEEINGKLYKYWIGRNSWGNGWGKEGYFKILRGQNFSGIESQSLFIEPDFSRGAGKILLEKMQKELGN
Parameters: species or system P. falciparum D10 trophozoite lysates; single well
COc1ccc(-c2nc(CS(=O)CC(=O)NCc3ccc(Cl)cc3)c(C)o2)cc1OC (stereo not drawn) was tested, and the “% Inhibition @ 10 uM” value was -2.85%. With Cc1c(C(=O)NCc2ccccc2)oc2ccc(S(=O)(=O)N3CCCC(C)C3)cc12 (stereo not drawn) the “% Inhibition @ 10 uM” value was 3.33%. With O=C(CCC(=O)c1ccc(F)cc1)NCc1ccccc1C(F)(F)F the “% Inhibition @ 10 uM” value was 5.01%. With O=C(Nc1c(C(=O)Nc2ccc(Cl)cc2)cnn1-c1ccccc1)c1cccs1 the “% Inhibition @ 10 uM” value was 6.1%. NC(=O)C1CCN(CC2CC3C=CC2C3)CC1 (stereo not drawn) was tested, and the “% Inhibition @ 10 uM” value was -2.34%. CCOC(=O)c1c(NC(=O)CSc2nnc(Cc3csc(N)n3)n2C)sc(C)c1C was tested, and the “% Inhibition @ 10 uM” value was -3.1%. With CCOC(=O)C1=C(CS(=O)(=O)c2ccc(F)c(Cl)c2)NC(=O)NC1c1ccccc1OC (stereo not drawn) the “% Inhibition @ 10 uM” value was -2.16%. In the case of CCCC[C@H](NC(=O)C(CCC(=O)Nc1ccccc1)NC(=O)c1ccc(Br)cc1)C(=O)c1nc2ccccc2o1 (stereo partly drawn), the “% Inhibition @ 10 uM” value is reported as 3.19%. CCOc1ccc(NC(=O)c2c(O)c3ccccc3n(CC)c2=O)cc1 was tested, and the “% Inhibition @ 10 uM” value was 14.3%. For COc1ccc(NCC2CC=CCC2)cc1OC (stereo not drawn), the “% Inhibition @ 10 uM” value was -2.95%. For CCOC(=O)N1CCN(S(=O)(=O)c2ccc(Cl)c(Cl)c2OC)CC1, the “% Inhibition @ 10 uM” value was 2.5%. O=c1c(O)csc2ccccc12 was tested, and the “% Inhibition @ 10 uM” value was 0.032%. Cc1nnc(NC(=O)CSc2nnc(CNC(=O)c3cccs3)n2-c2ccc(F)cc2)s1 was tested, and the “% Inhibition @ 10 uM” value was -1.3%. In the case of c1ccc(OCc2nn3c(-c4ccccc4)nnc3s2)cc1, the “% Inhibition @ 10 uM” value is reported as 0.0539%. With O=C(CCS(=O)(=O)c1ccc(Br)s1)NCCc1ccc(Cl)cc1 the “% Inhibition @ 10 uM” value was 0.0654%. For CC(C)N1CCN(Cc2ccccc2)CC1, the “% Inhibition @ 10 uM” value was -3.4%. With CC1(C)Cc2ccccc2C2=C(C(=O)N3CCOCC3)C(=O)C(=O)N21 the “% Inhibition @ 10 uM” value was -12.1%. For O=C(NCc1ccccn1)C1CC2CCC1C2 (stereo not drawn), the “% Inhibition @ 10 uM” value was -0.402%. For Cc1oc2ccc(O)c(CN3CCCC3)c2c1C(=O)NCc1ccccc1, the “% Inhibition @ 10 uM” value was -6.72%. For O=C(Cn1ccc2cc(S(=O)(=O)N3CCCC3)ccc21)NCc1cccc(Cl)c1, the “% Inhibition @ 10 uM” value was -0.717%. Cc1cc(C)cc(C(=O)N2CCN=C2c2ccccc2)c1 was tested, and the “% Inhibition @ 10 uM” value was 5.39%. With CCOc1c(Br)cc(/C=C2\C(=O)ON=C2c2ccccc2)cc1OC the “% Inhibition @ 10 uM” value was -3.33%. CCc1ccc2ncc(S(=O)(=O)c3ccccc3)c(N3CCN(C)CC3)c2c1 was tested, and the “% Inhibition @ 10 uM” value was -2.01%. O=S1(=O)c2cccc3cccc(c23)N1Cc1cc2c(cc1Cl)OCO2 was tested, and the “% Inhibition @ 10 uM” value was 4.61%. For Cc1cccc2sc(NC(=O)CCn3cccc3)nc12, the “% Inhibition @ 10 uM” value was -2.45%. CCN(CC)CCCC(C)Nc1ncnc2c1cnn2C (stereo not drawn) was tested, and the “% Inhibition @ 10 uM” value was 4.46%. In the case of Cc1nc2scc(C)n2c(=O)c1S(=O)(=O)N1CCc2ccccc2C1, the “% Inhibition @ 10 uM” value is reported as -0.984%. With Cc1ccc(-c2nn3c(C)nnc3c3ccccc23)cc1S(N)(=O)=O the “% Inhibition @ 10 uM” value was -1.24%. For Cc1ccc(-c2nn3c(-c4ccco4)nnc3c3ccccc23)cc1, the “% Inhibition @ 10 uM” value was 0.366%. For CC(CCN1CCCC1CO)c1ccccc1 (stereo not drawn), the “% Inhibition @ 10 uM” value was 1.08%. N#Cc1c(-c2ccccc2)cc(-c2ccccc2)nc1SCC(=O)O was tested, and the “% Inhibition @ 10 uM” value was -0.239%. In the case of O=C(c1ccc(-c2ccccc2)s1)N1CCN(Cc2ccccc2)CC1, the “% Inhibition @ 10 uM” value is reported as 2.84%. Fc1ccc(-n2ncc3c(N4CCOCC4)ncnc32)cc1 was tested, and the “% Inhibition @ 10 uM” value was -4.46%. With OCCN1CCN(C2Cc3ccc(F)cc3Sc3ccc(Cl)cc32)CC1 (stereo not drawn) the “% Inhibition @ 10 uM” value was 2.55%. In the case of O=C(Nc1cccc([N+](=O)[O-])c1)NS(=O)(=O)c1ccccc1Cl, the “% Inhibition @ 10 uM” value is reported as -4.61%. With CC1C(c2ccccc2)N(C)C(c2ccccc2)CC1(O)c1ccccc1 (stereo not drawn) the “% Inhibition @ 10 uM” value was 1.13%. CCc1nn2c(=O)c(S(=O)(=O)N3CCN(c4ccccn4)CC3)c(C)nc2s1 was tested, and the “% Inhibition @ 10 uM” value was -3.41%. In the case of COc1ccccc1/N=C(/NS(=O)(=O)c1ccccc1)C(Cl)(Cl)Cl, the “% Inhibition @ 10 uM” value is reported as 0.343%. CC(=O)c1ccc(NS(=O)(=O)c2ccc(Oc3ccccc3C)cc2)cc1 was tested, and the “% Inhibition @ 10 uM” value was -5.57%. In the case of COc1cccc(OC)c1C(=O)N1CCN(c2ccc(OCc3ccccc3)cc2)CC1, the “% Inhibition @ 10 uM” value is reported as -3.45%. With CC1=C(C(=O)N2CCOCC2)C(c2ccccc2OC(C)C)C2=C(O)CCCC2=N1 (stereo not drawn) the “% Inhibition @ 10 uM” value was -3.23%. COc1ccc(C(=O)Nc2cc(S(=O)(=O)c3ccccc3)c(O)c(C)c2C)cc1 was tested, and the “% Inhibition @ 10 uM” value was 5.99%. COc1ccccc1C(=O)N1CCN(Cc2ccc(Cl)cc2)CC1 was tested, and the “% Inhibition @ 10 uM” value was -0.512%. For Cc1c(C(=O)N2CCCC2)oc2c1-c1nn(CC(=O)NCCCN3CC(C)CC(C)C3)cc1CC2 (stereo not drawn), the “% Inhibition @ 10 uM” value was -0.517%. With CCSc1nc(C2CC2)cc(-c2ccc(Cl)cc2)c1C#N the “% Inhibition @ 10 uM” value was -0.294%. With O=S(=O)(c1ccccc1)c1cccc(S(=O)(=O)N2CCCCC2)c1 the “% Inhibition @ 10 uM” value was 6.31%. N#CC1=C(N)OC2=C(C(=O)CC(c3ccco3)C2)C1c1c[nH]nc1-c1ccc(F)cc1 (stereo not drawn) was tested, and the “% Inhibition @ 10 uM” value was 1.35%. With COc1ccc(CCNc2nc3c(c(=O)n(C)c(=O)n3C)n2Cc2cccc(F)c2)cc1OC the “% Inhibition @ 10 uM” value was 3.06%. With COC(=O)c1ccc(C(=O)N(CCN(C)C)c2nc3c(C)c(C)ccc3s2)cc1 the “% Inhibition @ 10 uM” value was -0.0871%. O=C(Nc1cccc([N+](=O)[O-])c1)c1cccc(S(=O)(=O)Nc2ccccc2C(=O)O)c1 was tested, and the “% Inhibition @ 10 uM” value was -2.47%. With O=C(NCc1ccccn1)Nc1cccc2ccccc12 the “% Inhibition @ 10 uM” value was -2.41%. With Clc1ccccc1N1CCN(Cc2ccc(Br)o2)CC1 the “% Inhibition @ 10 uM” value was -5.57%. With Cc1ccc2c(CNCCC3=CCCCC3)c(C(=O)O)n(Cc3ccc(F)cc3Cl)c2c1 the “% Inhibition @ 10 uM” value was 0.181%. For COc1ccc(-c2csc(/C(C#N)=C/c3ccccc3F)n2)cc1, the “% Inhibition @ 10 uM” value was -3.44%. For Cc1nn(CC(=O)NC2CCN(Cc3ccccc3)CC2)c(=O)c2cc3cc(F)ccc3n12, the “% Inhibition @ 10 uM” value was -1.7%. O=C(NCC1CCCO1)NC1(C(F)(F)F)Oc2cc(Cl)c(Cl)cc2O1 (stereo not drawn) was tested, and the “% Inhibition @ 10 uM” value was -1.2%. For Cc1cccc(C)c1OCCNCC(C)O (stereo not drawn), the “% Inhibition @ 10 uM” value was -2.8%. For COc1ccccc1OCC(=O)N1CCN(c2ccccc2)CC1, the “% Inhibition @ 10 uM” value was 1.59%. For CC1(C)CC(NC(=O)c2ccccc2C(=O)O)CC(C)(C)N1, the “% Inhibition @ 10 uM” value was -5.44%. CC(=O)Nc1ccc2c(c1)ncn2-c1ccccc1 was tested, and the “% Inhibition @ 10 uM” value was 0.345%. In the case of CCc1nn(CCCC(=O)NCCCN2CCCC2=O)c(=O)c2cc3occc3n12, the “% Inhibition @ 10 uM” value is reported as -3.79%. COc1ccc(-c2cc(O)n(CCC#N)n2)cc1 was tested, and the “% Inhibition @ 10 uM” value was -0.0369%. Nc1nonc1C(=O)NCCc1ccccc1 was tested, and the “% Inhibition @ 10 uM” value was 1.03%. With CCCOc1ccccc1/C=c1/sc2nc(=O)c(Cc3ccccc3)nn2c1=O the “% Inhibition @ 10 uM” value was 1.91%. CCOC(=O)c1[nH]c2ccc(F)cc2c1N was tested, and the “% Inhibition @ 10 uM” value was 1.72%. For c1ccc(-c2nnc(CN3CCCCC3)o2)cc1, the “% Inhibition @ 10 uM” value was 3.74%. In the case of CN1C(=O)C2Cc3c([nH]c4ccccc34)C(c3ccc(Cl)cc3)N2C1=S (stereo not drawn), the “% Inhibition @ 10 uM” value is reported as 1.66%. Cc1nn(-c2ccccc2)c(Cl)c1CO was tested, and the “% Inhibition @ 10 uM” value was -1.29%. For CCCOc1ccc(C2C(C(=O)c3ccc4c(c3)CC(C)O4)=C(O)C(=O)N2Cc2ccco2)cc1 (stereo not drawn), the “% Inhibition @ 10 uM” value was 18.4%. With O=S(=O)(NCc1cn2ccsc2n1)c1ccc2c(c1)OCCO2 the “% Inhibition @ 10 uM” value was 4.14%. With NC(=O)C1CCN(C(=O)CCCSc2nc(-c3ccco3)cc(C(F)(F)F)n2)CC1 the “% Inhibition @ 10 uM” value was 10.8%. Cc1ccc(C(C)NC(=O)C2C3CCC(C3)C2C(=O)O)cc1C (stereo not drawn) was tested, and the “% Inhibition @ 10 uM” value was 3.61%. For COc1ccc(S(=O)(=O)Nc2ccc(Cl)cc2C(=O)c2ccccc2)cc1, the “% Inhibition @ 10 uM” value was 2.92%. In the case of COc1ccc(CCNC(=O)c2oc3ccc4c(c3c2C)C(O)CC2(CCCC2)O4)cc1OC (stereo not drawn), the “% Inhibition @ 10 uM” value is reported as 7.76%. COc1ccc(C(=O)Cn2cnc3c(C#N)c4n(c3c2=O)CCCCC4)cc1 was tested, and the “% Inhibition @ 10 uM” value was 15.9%. CCn1cc(C(=O)N(C)C2CCCCC2)c2cc(OC)c(OC)cc2c1=O was tested, and the “% Inhibition @ 10 uM” value was -4.86%. CC(C)C[C@H](NC(=O)c1ccc2ccccc2c1)C(=O)NCC#N was tested, and the “% Inhibition @ 10 uM” value was -5.2%. For COc1ccc(NC2=C(Cl)C(=O)N(c3cccc(C)c3)C2=O)cc1, the “% Inhibition @ 10 uM” value was -2.83%. With CC(=O)N1CCc2c(sc3nc(SCc4cc(C)ccc4C)n(CC4CCCO4)c(=O)c23)C1 (stereo not drawn) the “% Inhibition @ 10 uM” value was 2.33%. With CCC(C)NC(=O)c1nn2c(c1Cl)NC(c1ccc(OC)cc1)CC2C(F)(F)F (stereo not drawn) the “% Inhibition @ 10 uM” value was 0.751%. In the case of COc1ccc(OC)c(S(=O)(=O)N2CCOCC2)c1, the “% Inhibition @ 10 uM” value is reported as -4.98%. With Cc1ccccc1C(=O)Nc1sc(C)c(C)c1C#N the “% Inhibition @ 10 uM” value was -2.77%. N#CC1=C(N)Oc2[nH]nc(-c3ccc(Cl)cc3)c2C1c1cccs1 (stereo not drawn) was tested, and the “% Inhibition @ 10 uM” value was -5.01%. In the case of O=C(Nc1cccc(C(F)(F)F)c1)c1cccnc1NCCO, the “% Inhibition @ 10 uM” value is reported as -4.91%. In the case of COc1ccccc1CN1CCC(CN2CNc3c(c(=O)n(C)c(=O)n3C)C2)CC1, the “% Inhibition @ 10 uM” value is reported as 2.34%. COc1ccccc1C(=O)Nc1sc2c(c1C(=O)NCc1ccco1)CCC2 was tested, and the “% Inhibition @ 10 uM” value was 4.39%. In the case of CCOC(C(=O)O)(c1ccccc1)c1ccccc1, the “% Inhibition @ 10 uM” value is reported as 5.3%. In the case of Cc1ccc(Cn2c(SCC(N)=O)nc3c(oc4ccccc43)c2=O)cc1, the “% Inhibition @ 10 uM” value is reported as 1.45%. CN(Cc1ccc(Br)cc1)CC(O)c1ccccc1 (stereo not drawn) was tested, and the “% Inhibition @ 10 uM” value was -3.42%. CCOC(=O)c1c(C)[nH]c(C)c1S(=O)(=O)NCC(=O)N1CCN(C2CCCC2)CC1 was tested, and the “% Inhibition @ 10 uM” value was -3.05%. Cc1occc1C(=O)Nc1cccc(NC(=O)c2ccoc2C)c1 was tested, and the “% Inhibition @ 10 uM” value was -3.41%. In the case of O=C(c1ccc2c(c1)OCO2)N1CCN(c2cccc(C(F)(F)F)c2)CC1, the “% Inhibition @ 10 uM” value is reported as -5.28%. For CC1=C(C#N)C(=O)N(C)C(=O)/C1=C\NC12CN3CN(CN(C3)C1)C2, the “% Inhibition @ 10 uM” value was -6.35%. In the case of Cc1cc(C(=O)NC(C)CCc2ccccc2)c2c(C)nn(-c3ccccc3)c2n1 (stereo not drawn), the “% Inhibition @ 10 uM” value is reported as 2.12%. In the case of Cc1ccc(NC2=NCC(C)S2)c(C)c1 (stereo not drawn), the “% Inhibition @ 10 uM” value is reported as 1.84%. With CCN(CC)CCC(=O)C=C(C)C the “% Inhibition @ 10 uM” value was -2.97%. Cc1cc(C(=O)NCc2ccc(F)cc2)no1 was tested, and the “% Inhibition @ 10 uM” value was -5.09%. Cc1ccc(C(C)C)c(Oc2ccc(-c3nc(N)nc(N)n3)cc2)c1 was tested, and the “% Inhibition @ 10 uM” value was 5.69%. For O=C(Nc1ccn(Cc2ccc(F)cc2)n1)c1ccncc1, the “% Inhibition @ 10 uM” value was 2.32%.
